Among all 310,000 compounds or so, about 14,000 (4.5%) showed an effect of 50% or more. Effects have a minus sign here. This is one part of the list.
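Also: peak tail current of the secondary pulse compared with the same well before compound.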

In the assay the target is human ether-à-go-go-related gene (hERG) potassium channel (human, UniProt Q12809). Nature of the assay: primary screen, population patch clamp on CHO cells stably expressing hERG.
Chain of human ether-à-go-go-related gene (hERG) potassium channel (Q12809 whole entry, looked up): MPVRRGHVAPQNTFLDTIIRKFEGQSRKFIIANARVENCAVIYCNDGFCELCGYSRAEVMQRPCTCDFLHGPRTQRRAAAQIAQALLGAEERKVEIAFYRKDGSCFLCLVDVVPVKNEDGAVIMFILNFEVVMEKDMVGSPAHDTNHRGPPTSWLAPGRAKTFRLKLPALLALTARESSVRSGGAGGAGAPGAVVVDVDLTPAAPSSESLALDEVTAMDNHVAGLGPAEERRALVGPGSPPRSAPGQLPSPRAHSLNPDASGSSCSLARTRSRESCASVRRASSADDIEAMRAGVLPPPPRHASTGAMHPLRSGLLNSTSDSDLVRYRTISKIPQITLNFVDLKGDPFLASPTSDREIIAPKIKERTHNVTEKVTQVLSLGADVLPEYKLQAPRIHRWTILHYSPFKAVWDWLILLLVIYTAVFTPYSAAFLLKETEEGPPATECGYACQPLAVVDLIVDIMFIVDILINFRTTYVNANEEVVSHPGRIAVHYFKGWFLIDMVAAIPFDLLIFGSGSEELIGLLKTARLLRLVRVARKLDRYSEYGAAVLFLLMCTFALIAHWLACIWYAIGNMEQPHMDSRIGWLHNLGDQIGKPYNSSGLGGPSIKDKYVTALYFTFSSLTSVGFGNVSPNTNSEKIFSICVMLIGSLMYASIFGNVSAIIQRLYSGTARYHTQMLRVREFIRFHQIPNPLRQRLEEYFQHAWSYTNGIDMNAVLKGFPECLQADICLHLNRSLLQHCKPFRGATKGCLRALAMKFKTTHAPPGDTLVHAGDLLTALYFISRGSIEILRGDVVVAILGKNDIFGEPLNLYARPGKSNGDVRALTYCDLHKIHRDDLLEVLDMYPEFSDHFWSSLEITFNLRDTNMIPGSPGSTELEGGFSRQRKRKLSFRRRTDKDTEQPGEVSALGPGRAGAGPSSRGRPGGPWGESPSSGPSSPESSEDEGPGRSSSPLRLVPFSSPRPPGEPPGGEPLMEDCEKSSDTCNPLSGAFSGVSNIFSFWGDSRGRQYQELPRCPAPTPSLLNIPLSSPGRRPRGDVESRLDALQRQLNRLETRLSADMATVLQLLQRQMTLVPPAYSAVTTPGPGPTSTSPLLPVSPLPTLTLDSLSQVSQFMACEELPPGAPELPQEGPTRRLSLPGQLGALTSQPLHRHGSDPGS
For `O=C(C(=O)N1CCN(c2ccc(F)cc2)CC1)c1c[nH]c2ccccc12`, the “hERG current change (%, negative = inhibition) at 10uM” value was -5.69%. The same measure for `CCC(C(=O)Nc1c2c(nn1C(C)(C)C)CS(=O)(=O)C2)c1ccccc1` (centres unmarked): -17.6%. With `COc1ccc(OC)c(CN2C(=O)c3ccccc3C2C(=O)NCc2cccnc2)c1` (centres unmarked) the figure was 0.718%; with `Cc1sc2ncnc(NCC(c3ccco3)N(C)C)c2c1C.O=C(O)C(=O)O` (centres unmarked), -33.7%. As to `CCn1nc(C)c(CNC(=O)Nc2ccccc2C(=O)OC)c1C`, the “hERG current change (%, negative = inhibition) at 10uM” value amounted to 13.5%. Regarding `Cc1c(Cl)cccc1NC(=S)NNc1ncc(C(F)(F)F)cc1Cl`, the “hERG current change (%, negative = inhibition) at 10uM” value turned out to be 11.7%. With `OCCC1CN(Cc2ccccn2)CCN1C1CCCC1` (centres unmarked) the figure was 9.91%; with `O=C(N/N=C/c1cccc(Br)c1)C1CC(=O)N(c2ccccc2)C1` (centres unmarked), 7.68%; with `COc1ccc(NC(=O)CSc2ccc(-c3ccco3)nn2)cc1`, 6.81%. Turning to `COc1cccc(/C(C)=N/NC(=O)c2ccc(N(C)C)cc2)c1`, the “hERG current change (%, negative = inhibition) at 10uM” value worked out at 3.12%. With `Cc1ccc(C(=O)Nc2nc(-c3ccccn3)cs2)cc1S(=O)(=O)N1CCOCC1` the figure was -26.7%. The same measure for `CCOC(=O)c1sc(C)c2c(=O)n(Cc3ccc(Cl)cc3)c(C)nc12`: -2.13%; for `COC(=O)C[N+](C)(C)C/C=C\c1ccccc1.[Br-]`: 38.9%. As to `CCN1CCN(C(=O)c2ccc3c(=O)n(CCc4ccccc4)c(=O)[nH]c3c2)CC1`, the “hERG current change (%, negative = inhibition) at 10uM” value was -26.2%. The same measure for `CC1=NN(c2ccccc2)C(=O)C1C(=O)C(=O)Nc1ccc(F)cc1` (centres unmarked): 42.7%; for `CCc1ccc(NC(=O)CC2C(=O)N(c3cccc(OC)c3)C(=O)N2CCOC)cc1` (centres unmarked): 5.8%; for `O=C(NC(=S)Nc1nc(-c2ccccc2)cs1)c1cncc(Br)c1`: 5.05%.

Turning to `O=C(COC(=O)c1n[nH]c2ccccc12)NC(=O)NC1CCCCC1`, the “hERG current change (%, negative = inhibition) at 10uM” value stood at 3.46%. With `N#Cc1cccc(NC(=O)N2CCC(c3nc4c(nnn4Cc4cccc(Cl)c4)c(=O)[nH]3)CC2)c1` the figure was 12%.

In the case of `S=C(NC1CCCCC1)NC1CC2CCC(C1)N2Cc1ccccc1` (centres unmarked), the “hERG current change (%, negative = inhibition) at 10uM” value is -33.4%. As to `Cc1cccnc1NC(=O)CCc1c[nH]c2ccccc12`, the “hERG current change (%, negative = inhibition) at 10uM” value is 2.86%. The same measure for `Oc1ccc(-c2nnc(Nc3cccc(O)c3)c3ccccc23)cc1`: -7.99%. The same measure for `Cn1c(C(=O)N2CCN(c3ccccn3)CC2)cc2ccccc21`: -18.5%; for `CCC1(c2ccc(Cl)cc2)NC(=S)N(c2ccc(C)c(C)c2)N1` (centres unmarked): 5.54%. Regarding `CCOc1cc(/C=N/NC(=O)c2ccccc2OCc2ccc(F)cc2)ccc1O`, the “hERG current change (%, negative = inhibition) at 10uM” value is recorded as -2.93%. With `O=C(NCc1ccccc1)C1CCN(S(=O)(=O)c2ccc(N3CCCC3=O)cc2)CC1` the figure was 0.265%; with `CN(C(=O)c1ccc(Cl)c([N+](=O)[O-])c1)C1(C)CCS(=O)(=O)C1` (centres unmarked), -10.9%. Turning to `O=C(NCc1cccs1)C(=O)c1cn(CC(=O)N2CCOCC2)c2ccccc12`, the “hERG current change (%, negative = inhibition) at 10uM” value was 19.3%. As to `CC(C)(C)n1nnnc1C(c1ccncc1)N1CCN(C2CCCCC2)CC1` (centres unmarked), the “hERG current change (%, negative = inhibition) at 10uM” value is -4.67%. On to `CCOC(=O)N1CCN(C(=O)CSc2nc3ccccc3c(=O)n2-c2ccccc2)CC1`, for which the “hERG current change (%, negative = inhibition) at 10uM” value is -28.4%. On to `CCN(Cc1cc(OC)c(OC)c(OC)c1)C(=S)Nc1cccc(SC)c1`, for which the “hERG current change (%, negative = inhibition) at 10uM” value was -17.7%.

With `CC(C)CN(C(=O)CSc1ncnc2ccccc12)C1CCS(=O)(=O)C1` (centres unmarked), the “hERG current change (%, negative = inhibition) at 10uM” value is reported as -5.62%. The same measure for `COc1ccc(N2C(=O)C(F)(F)C2c2cccc(F)c2)cc1` (centres unmarked): 17.3%; for `O=C(C1CCC1)N1CCN(c2ccnc3cc(Cl)ccc23)CC1`: -71.4%; for `CSc1ncccc1C(=O)N1CCCC(N2CCN(c3ccccc3F)CC2)C1` (centres unmarked): -12.4%.

For `Clc1ccc(CSc2nnc(-c3ccc4c(c3)OCO4)o2)cc1`, the “hERG current change (%, negative = inhibition) at 10uM” value worked out at 4.16%. The same measure for `O=S(=O)(c1ccccc1)c1cnc(-c2cccnc2)nc1-c1ccc(Cl)c(Cl)c1`: -2.3%; for `O=C(Nc1ccc(S(=O)(=O)Nc2nccs2)cc1)C(F)(F)F`: 5.9%; for `Cc1ccc(C(=O)Nc2ccc(Cl)cc2C(=O)c2ccccc2)cc1`: 17.1%. With `COc1cccc(CNC(=O)CCS(=O)(=O)c2ccc3c(c2)CC(C)N3C(=O)C2CC2)c1` (centres unmarked) the figure was -32.4%; with `COc1cccc(N(CC(=O)NCc2ccco2)C(=O)CCC(=O)Nc2nccs2)c1`, 1.6%. With `COc1ccc(-n2ccn(CC(=O)Nc3ccccc3OC)c(=O)c2=O)cc1` the figure was 10.9%; with `Cc1ccc(-n2nc(C)c3c2NC(=O)CSC3c2ccc3c(c2)OCO3)cc1` (centres unmarked), 5.05%; with `COc1ccc(CCNC(=O)CCCn2c(SCC(N)=O)nc3cc4c(cc3c2=O)OCO4)cc1OC`, 10.3%. In the case of `CCOC(=O)C1Cc2ccccc2CN1.Cl` (centres unmarked), the “hERG current change (%, negative = inhibition) at 10uM” value worked out at 1.73%. The same measure for `COc1ccc(NC(=O)COc2ccccc2)cc1NC(=O)c1ccco1`: -30.8%; for `O=C(Nc1cccc2ccccc12)c1cccc([N+](=O)[O-])c1`: 11.6%; for `Cc1nc(-c2ccccc2)sc1C(=O)CSc1ccccc1`: -10.8%.

As for `O=C(CCN1C(=O)C2C3C=CC(C4CC34)C2C1=O)Nc1ccc(Cl)cc1O` (centres unmarked), the “hERG current change (%, negative = inhibition) at 10uM” value was found to be 2.41%. Consider `O=C(CN(Cc1ccco1)C(=O)Cn1nnc(-c2ccc(F)cc2)n1)NC1CCCC1`, for which the “hERG current change (%, negative = inhibition) at 10uM” value is on record as -29.3%. With `CC(OC(=O)c1ccc2c(c1)S(=O)(=O)c1ccccc1C2=O)C(N)=O` (centres unmarked) the figure was 16.7%.

In the case of `C/C(=N\NC(=O)c1ccc(O)cc1)c1cccc(NC(=O)c2ccc(Cl)cc2)c1`, the “hERG current change (%, negative = inhibition) at 10uM” value amounted to 17.7%. As to `Fc1ccc(/C=N/N2CCN(Cc3ccccc3)CC2)cc1`, the “hERG current change (%, negative = inhibition) at 10uM” value is -22.1%. For the molecule `O=C(C1CCN(c2ncnc3c2nc2n3CCCCC2)CC1)N1CCN(c2ccccc2F)CC1`, the “hERG current change (%, negative = inhibition) at 10uM” value was -33.1%. With `Cc1nonc1CN(C)C(=O)c1ccc(OC2CCN(Cc3ccccn3)CC2)cc1` the figure was -37.5%; with `CC(C)N1CC(O)=C(c2nc3ccccc3c(=O)[nH]2)C1=N`, -2.74%; with `O=C(Nc1cccc(F)c1)C1CCN(C(=O)N2CCOc3ccccc32)CC1`, -35.9%. The same measure for `CCSc1nnc(Cc2cc(=O)[nH]c(=O)[nH]2)n1-c1ccc(Cl)cc1`: 6.24%. With `O=C(COc1ccc2ccccc2c1Br)Nc1ccncc1` the figure was 19.5%; with `Cc1ccc(NC(=O)C2CCN(S(=O)(=O)c3c(C)n[nH]c3C)CC2)nc1`, -23%. For `COc1ccc(Cl)cc1-c1nc(SCC(=O)NCCN2C(=O)CSC2=O)n[nH]1`, the “hERG current change (%, negative = inhibition) at 10uM” value is given as -7.49%. The same measure for `Cc1noc(C)c1C(=O)NCCc1ccc(S(N)(=O)=O)cc1`: -23.7%; for `COc1ccc(N2C(=O)CC(N3CCN(c4ccccc4OC)CC3)C2=O)cc1` (centres unmarked): 6.7%; for `Cc1ccccc1N(CC(=O)N/N=C/c1ccc(F)cc1)C(=O)c1ccccc1`: -23.4%. With `CCN(CC)c1ccc(/C=C2\SC(N)=NC2=O)cc1` the figure was 7.42%.

In the case of `O=C1Nc2ccc([N+](=O)[O-])cc2OC1CCN1CCCC1` (centres unmarked), the “hERG current change (%, negative = inhibition) at 10uM” value is reported as 1.7%.

As to `c1ccc(N2CCN(c3nnc(Cc4cccnc4)c4ccccc34)CC2)nc1`, the “hERG current change (%, negative = inhibition) at 10uM” value was -50.1%.

Take `CCOC(=O)C1CCCN(c2c(NCCN3CCCCC3C)c(=O)c2=O)C1` (centres unmarked): the “hERG current change (%, negative = inhibition) at 10uM” value is on record as 5.47%.

As to `COc1ccc(S(=O)(=O)NCCCN2CCCC2=O)cc1OC`, the “hERG current change (%, negative = inhibition) at 10uM” value is 9.12%. The same measure for `C=CCN1C(=O)/C(=C\c2ccc(N3CCOCC3)o2)C(=O)NC1=S`: 4.36%; for `Cc1ccccc1NC(NC(=O)c1cccnc1)C(Cl)(Cl)Cl` (centres unmarked): -1.3%. With `CCN1C(=O)/C(=C\N(C)C)S/C1=N\S(=O)(=O)c1ccc(C)cc1` the figure was 19.3%; with `CN(NS(=O)(=O)c1ccc(F)cc1)c1ncc(C(F)(F)F)cc1Cl`, -14.1%; with `CC(=O)c1ccc(N2CCN(c3ccc(S(=O)(=O)NCCCN(C)C)cc3[N+](=O)[O-])CC2)cc1`, -18.1%. With `O=C(Cc1ccc(O)cc1)N/N=C/c1cccs1` the figure was 18.8%; with `Cc1ccccc1C(=O)N1CCC(C(=O)OCC(=O)Nc2cccc([N+](=O)[O-])c2C)CC1`, -24.7%; with `COc1ccc(CCNC(=O)C(C)OC(=O)c2nsc(Cl)c2Cl)cc1OC` (centres unmarked), 12.4%. Take `O=C(NN(c1ccccc1)c1ccccc1)c1ccccc1F`: the “hERG current change (%, negative = inhibition) at 10uM” value was 13.2%. With `Cl.OCCNCc1cc(Br)ccc1OCc1ccc(F)cc1` the figure was -49.7%. The same measure for `CC(CC(=O)NCCc1ccc(F)cc1)c1ccccc1` (centres unmarked): -6.32%. With `CCOc1ccc(-c2nc(-c3ccncc3)no2)cc1OCC`, the “hERG current change (%, negative = inhibition) at 10uM” value is listed as 14.2%. The same measure for `Cc1nc2sc3c(c2c2nnc(SCC(=O)NCc4ccco4)n12)CCCC3`: -28.2%; for `COc1ccc(N2C(C(C)=O)=NN(c3ccccc3)C2c2cccs2)cc1` (centres unmarked): 10.5%. With `Cc1ccc(C)c(NC(=O)[C@@H]2CCCN2S(=O)(=O)c2ccccc2F)c1` the figure was 10.9%; with `CNc1ccccc1C(=O)OCC(=O)c1ccc(F)cc1`, 0.751%; with `COc1ccccc1-c1cc2nc(C)c(CCC(=O)NC(C)CCc3ccco3)c(C)n2n1` (centres unmarked), -62.5%.
